Data as given in PubChem BioAssay AID1347428 (National Center for Advancing Translational Sciences (NCATS), 2020).
The campaign covered roughly 91,000 compounds. About 290 (0.32%) were called active. Inconclusive means that the source gave no clear call. Such entries were picked first, then a sample of the others. Calls come from the whole dose curve; as a rule, active = well fitted inhibition curve with a large enough effect; inconclusive = small, poorly fitted or top-dose-only effect; inactive = no such curve, though single readings can be large or run the other way. A potency beside an inconclusive call is a rough fit, not a confirmed value.

target: Single-stranded DNA cytosine deaminase (Homo sapiens) (UniProt Q9GZX7); experiment: Primary qHTS assay for inhibitors of Activation Induced Cytidine Deaminase (AID): AID signal; conditions: AID deamination FRET fluorescence, UDG-coupled, 4 h; activity change, negative = inhibition: at 115 µM (top of the series); note: nearly all actives have a fitted effect of over 25% in size
% is set by controls: 0 for no effect and ±100 for the full control effect; potency is the fitted concentration of half-maximal effect; tags give direction and shape of the fitted curve.

UniProt Q9GZX7, sequence (Q9GZX7 whole entry, looked up): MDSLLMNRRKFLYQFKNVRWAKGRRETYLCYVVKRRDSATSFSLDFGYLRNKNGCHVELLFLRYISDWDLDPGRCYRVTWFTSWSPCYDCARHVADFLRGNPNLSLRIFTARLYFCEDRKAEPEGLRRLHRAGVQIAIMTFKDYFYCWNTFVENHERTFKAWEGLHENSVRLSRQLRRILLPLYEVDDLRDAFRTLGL

SMILES | activity change, negative = inhibition | Potency
COc1ccc(-c2cn3nc(N4CCC(C(=O)Nc5ccc(Cl)cc5C)CC4)sc3n2)cc1 | inactive: 0.246% | –
Cc1ccc(F)cc1NC(=O)c1ccc(Cn2nc(N3CCN(c4ccccc4)CC3)ccc2=O)o1 | – | inconclusive: 79.4 µM [inhibitor, single point]
Cc1cccc(N2CCN(CCCNC(=O)c3sc4ncccc4c3-n3cccc3)CC2C)c1 (centres undefined) | – | inconclusive: 39.8 µM [inhibitor, full curve, poor fit]
CCn1nc(C)cc1-c1nn2c(-c3cccc(Cl)c3Cl)nnc2s1 | inactive: -5.05% | –
CCC(C(=O)Nc1cc(OC)ccc1OC)n1c(=O)c(C(F)(F)F)nc2ccccc21 (centres undefined) | – | inconclusive: 20 µM [inhibitor, full curve, poor fit]
CN(C)CCNc1oc(-c2ccc(F)cc2)nc1S(=O)(=O)c1ccc2c(c1)OCCO2 | – | inconclusive: 39.8 µM [inhibitor, partial curve, poor fit]
O=C(CCc1ncc(-c2c(F)cccc2F)o1)N1CCN(S(=O)(=O)c2cccc(Cl)c2)CC1 | – | inconclusive: 12.6 µM [inhibitor, partial curve, poor fit]
COc1ccc2cc(S(=O)(=O)c3ccc(C(C)C)cc3)c(=O)oc2c1 | inactive: -7.27% | –
CCn1c(=O)cc(SCC(=O)NCCc2cccc(C)c2)c2ccccc21 | inactive: -24.7% | –
CCCCCSc1nnc2c(n1)OC(CC)Nc1ccc(Br)cc1-2 (centres undefined) | – | inconclusive: 89.1 µM [inhibitor, partial curve, poor fit]
COc1ccc(-c2cc(NC(=O)c3cccc(S(=O)(=O)NCC4CCCO4)c3)ccc2OC)cc1 (centres undefined) | inactive: 3.07% | –
COc1ccccc1NC1(c2nnnn2-c2c(C)cccc2C)CCCC1 | – | inconclusive: 39.8 µM [inhibitor, partial curve, poor fit]
Cc1nc(SC2=CS(=O)(=O)c3ccccc32)oc1C | inactive: 6.43% | –
Cc1cccc(N2CC(c3nc4ccccc4n3CCC3CCCCC3)CC2=O)c1 (centres undefined) | – | inconclusive: 15.8 µM [inhibitor, full curve, poor fit]
COCCCNC(=O)c1ccc(Cn2c(=O)c3ccccc3n(CC(=O)Nc3ccc(C)cc3C)c2=O)cc1 | inactive: 5.93% | –
CN=c1scc(-c2c(-c3ccccc3)n(C)c3ccccc23)n1C | – | inconclusive: 50.1 µM [inhibitor, single point]
CC1CCCCN1CCCNC(=O)c1ccc2c(c1)sc1nc(-c3ccc(F)cc3)cn12 (centres undefined) | – | inconclusive: 35.5 µM [inhibitor, full curve, poor fit]
CCOc1ccc(CN(C(=O)c2nc(SC)ncc2Cl)C2CCS(=O)(=O)C2)cc1 (centres undefined) | – | inconclusive: 31.6 µM [inhibitor, single point]
O=c1c(N2CCN(c3cccc(Cl)c3)CC2)csc2ccccc12 | – | inconclusive: 112 µM [inhibitor, partial curve, poor fit]
O=C(c1ccccc1O)N1CCN(C(=O)c2cc(=O)[nH]c3ccccc23)CC1 | inactive: 3.48% | –

SMILES | activity change, negative = inhibition | Potency
O=C(CSc1nc2ccccc2nc1Cc1ccc(Cl)cc1)N1CCCCC1 | – | inconclusive: 56.2 µM [inhibitor, partial curve, poor fit]
Fc1ccc(CNc2nc(-c3ccc(Cl)cc3)cc(C(F)(F)F)n2)cc1 | – | inconclusive: 35.5 µM [inhibitor, full curve]
Cc1ccc(NC(=O)C2CCN(S(=O)(=O)c3ccc4c(c3)CCCC(=O)N4)CC2)c(Br)c1 | – | inconclusive: 28.2 µM [inhibitor, partial curve, poor fit]
O=C(c1ccc2c(c1)N(Cc1ccccc1Cl)C(=O)c1ccccc1S2)N1CCCC1 | – | inconclusive: 50.1 µM [inhibitor, partial curve, poor fit]
Cc1cc(NC(=O)c2oc3c(c2C)-c2[nH]ncc2CC3)ccc1Br | – | active: 35.5 µM
C=Cc1ccc(CSc2nc(-c3ccccc3C)nc3c2Cc2c(CO)cnc(C)c2O3)cc1 | – | active: 44.7 µM
O=C(Cn1cc(S(=O)(=O)N2CCN(c3ccccc3F)CC2)c2ccccc2c1=O)Nc1cccc(C(F)(F)F)c1 | – | inconclusive: 4.47 µM [inhibitor, full curve, poor fit]
CC(CNC(=O)c1ccc(CSc2nc3ccncc3n2Cc2cccc(F)c2)cc1)c1ccccc1 (centres undefined) | – | inconclusive: 31.6 µM [inhibitor, full curve, poor fit]
COc1cccc(NC(=O)N(Cc2cn(C)c3ccccc23)C2CCCCC2)c1 | – | inconclusive: 39.8 µM [inhibitor, single point]
Cc1cc(Nc2ccccc2Cl)n2nc(-c3ccco3)nc2n1 | – | inconclusive: 50.1 µM [inhibitor, partial curve, poor fit]
COc1ccc(N2C(=O)CSC23C(=O)N(CC(=O)NCc2ccccc2)c2ccccc23)cc1 (centres undefined) | – | inconclusive: 79.4 µM [inhibitor, partial curve, poor fit]
CCOc1cccc(NC(=O)c2ccccc2)c1 | inactive: -12.2% | –
Cc1cc(=O)n(Cc2ccc(F)cc2Cl)c2c1c(C)nn2-c1ccccc1 | inactive: -4.48% | –
COc1ccc(CCNc2ncnc3c2c(-c2ccccc2)cn3-c2cccc(Cl)c2)cc1OC | – | inconclusive: 15.8 µM [inhibitor, full curve, poor fit]
Cc1ccc(CNC(=O)Cn2c(=O)cc(-c3ccccc3)c3c(C)nn(C)c32)cc1 | – | inconclusive: 39.8 µM [inhibitor, single point]
CCCC1=Nc2cc(C(=O)NCc3ccccc3)ccc2Sc2ccccc21 | – | inconclusive: 8.91 µM [inhibitor, full curve, poor fit]
CCCCN(C)S(=O)(=O)c1ccc(C(=O)Nc2sc3c(c2C(=O)OCC)CCN(C(C)C)C3)cc1 | – | inconclusive: 3.16 µM [inhibitor, full curve, poor fit]
Cn1c(=O)c2c(-c3ccccc3)n3c(c2n(C)c1=O)C(c1ccc([N+](=O)[O-])cc1)Nc1ccccc1-3 (centres undefined) | – | inconclusive: 79.4 µM [inhibitor, partial curve, poor fit]
CCCn1c2ccccc2c2cnn(CC(=O)NCC3CCN(Cc4ccccc4C)CC3)c(=O)c21 | – | inconclusive: 70.8 µM [inhibitor, partial curve, poor fit]
